Reference: the supplement of paper PMC12423691
The other results are listed elsewhere or left out. Binding of human transcription factors and regulators to the viral nucleoprotein by AlphaScreen, crude cell-free proteins, amounts not normalised, one pass. Fold of the Venus control; higher = more signal. No active / inactive call. Single-pass screen; sequences are the whole Swiss-Prot entries looked up by name.

B1: SMAD1, Q15797 (protein)
chain: MNVTSLFSFTSPAVKRLLGWKQGDEEEKWAEKAVDALVKKLKKKKGAMEELEKALSCPGQPSNCVTIPRSLDGRLQVSHRKGLPHVIYCRVWRWPDLQSHHELKPLECCEFPFGSKQKEVCINPYHYKRVESPVLPPVLVPRHSEYNPQHSLLAQFRNLGQNEPHMPLNATFPDSFQQPNSHPFPHSPNSSYPNSPGSSSSTYPHSPTSSDPGSPFQMPADTPPPAYLPPEDPMTQDGSQPMDTNMMAPPLPSEINRGDVQAVAYEEPKHWCSIVYYELNNRVGEAFHASSTSVLVDGFTDPSNNKNRFCLGLLSNVNRNSTIENTRRHIGKGVHLYYVGGEVYAECLSDSSIFVQSRNCNYHHGFHPTTVCKIPSGCSLKIFNNQEFAQLLAQSVNHGFETVYELTKMCTIRMSFVKGWGAEYHRQDVTSTPCWIEIHLHGPLQWLDKVLTQMGSPHNPISSVS
B2: MTA2, O94776 (protein)
chain: MAANMYRVGDYVYFENSSSNPYLVRRIEELNKTANGNVEAKVVCLFRRRDISSSLNSLADSNAREFEEESKQPGVSEQQRHQLKHRELFLSRQFESLPATHIRGKCSVTLLNETDILSQYLEKEDCFFYSLVFDPVQKTLLADQGEIRVGCKYQAEIPDRLVEGESDNRNQQKMEMKVWDPDNPLTDRQIDQFLVVARAVGTFARALDCSSSIRQPSLHMSAAAASRDITLFHAMDTLQRNGYDLAKAMSTLVPQGGPVLCRDEMEEWSASEAMLFEEALEKYGKDFNDIRQDFLPWKSLASIVQFYYMWKTTDRYIQQKRLKAAEADSKLKQVYIPTYTKPNPNQIISVGSKPGMNGAGFQKGLTCESCHTTQSAQWYAWGPPNMQCRLCASCWIYWKKYGGLKTPTQLEGATRGTTEPHSRGHLSRPEAQSLSPYTTSANRAKLLAKNRQTFLLQTTKLTRLARRMCRDLLQPRRAARRPYAPINANAIKAECSIRLPKAAKTPLKIHPLVRLPLATIVKDLVAQAPLKPKTPRGTKTPINRNQLSQNRGLGGIMVKRAYETMAGAGVPFSANGRPLASGIRSSSQPAAKRQKLNPADAPNPVVFVATKDTRALRKALTHLEMRRAARRPNLPLKVKPTLIAVRPPVPLPAPSHPASTNEPIVLED
B3: SPZ1, Q9BXG8 (protein)
chain: MASSAKSAEMPTISKTVNPTPDPHQEYLDPRITIALFEIGSHSPSSWGSLPFLKNSSHQVTEQQTAQKFNNLLKEIKDILKNMAGFEEKITEAKELFEETNITEDVSAHKENIRGLDKINEMLSTNLPVSLAPEKEDNEKKQEMILETNITEDVSAHKENIRGLDKINEMLSTNLPVSLAPEKEDNEKKQQMIMENQNSENTAQVFARDLVNRLEEKKVLNETQQSQEKAKNRLNVQEETMKIRNNMEQLLQEAEHWSKQHTELSKLIKSYQKSQKDISETLGNNGVGFQTQPNNEVSAKHELEEQVKKLSHDTYSLQLMAALLENECQILQQRVEILKELHHQKQGTLQEKPIQINYKQDKKNQKPSEAKKVEMYKQNKQAMKGTFWKKDRSCRSLDVCLNKKACNTQFNIHVARKALRGKMRSASSLR
B4: NFAM1, Q8NET5 (protein)
chain: MENQPVRWRALPGLPRPPGLPAAPWLLLGVLLLPGTLRLAGGQSVTHTGLPIMASLANTAISFSCRITYPYTPQFKVFTVSYFHEDLQGQRSPKKPTNCHPGLGTENQSHTLDCQVTLVLPGASATGTYYCSVHWPHSTVRGSGTFILVRDAGYREPPQSPQKLLLFGFTGLLSVLSVVGTALLLWNKKRMRGPGKDPTRKCPDPRSASSPKQHPSESVYTALQRRETEVYACIENEDGSSPTAKQSPLSQERPHRFEDDGELNLVYENL
B5: BLZF1, Q9H2G9 (protein)
chain: MTTKNLETKVTVTSSPIRGAGDGMETEEPPKSVEVTSGVQSRKHHSLQSPWKKAVPSESPGVLQLGKMLTEKAMEVKAVRILVPKAAITHDIPNKNTKVKSLGHHKGEFLGQSEGVIEPNKELSEVKNVLEKLKNSERRLLQDKEGLSNQLRVQTEVNRELKKLLVASVGDDLQYHFERLAREKNQLILENEALGRNTAQLSEQLERMSIQCDVWRSKFLASRVMADELTNSRAALQRQNRDAHGAIQDLLSEREQFRQEMIATQKLLEELLVSLQWGREQTYSPSVQPHSTAELALTNHKLAKAVNSHLLGNVGINNQKKIPSTVEFCSTPAEKMAETVLRILDPVTCKESSPDNPFFESSPTTLLATKKNIGRFHPYTRYENITFNCCNHCRGELIAL
B6: RARB, P10826 (protein)
chain: MTTSGHACPVPAVNGHMTHYPATPYPLLFPPVIGGLSLPPLHGLHGHPPPSGCSTPSPATIETQSTSSEELVPSPPSPLPPPRVYKPCFVCQDKSSGYHYGVSACEGCKGFFRRSIQKNMIYTCHRDKNCVINKVTRNRCQYCRLQKCFEVGMSKESVRNDRNKKKKETSKQECTESYEMTAELDDLTEKIRKAHQETFPSLCQLGKYTTNSSADHRVRLDLGLWDKFSELATKCIIKIVEFAKRLPGFTGLTIADQITLLKAACLDILILRICTRYTPEQDTMTFSDGLTLNRTQMHNAGFGPLTDLVFTFANQLLPLEMDDTETGLLSAICLICGDRQDLEEPTKVDKLQEPLLEALKIYIRKRRPSKPHMFPKILMKITDLRSISAKGAERVITLKMEIPGSMPPLIQEMLENSEGHEPLTPSSSGNTAEHSPSISPSSVENSGVSQSPLVQ
B7: TAF1B, Q53T94 (protein)
chain: MDLEEAEEFKERCTQCAAVSWGLTDEGKYYCTSCHNVTERYQEVTNTDLIPNTQIKALNRGLKKKNNTEKGWDWYVCEGFQYILYQQAEALKNLGVGPELKNDVLHNFWKRYLQKSKQAYCKNPVYTTGRKPTVLEDNLSHSDWASEPELLSDVSCPPFLESGAESQSDIHTRKPFPVSKASQSETSVCSGSLDGVEYSQRKEKGIVKMTMPQTLAFCYLSLLWQREAITLSDLLRFVEEDHIPYINAFQHFPEQMKLYGRDRGIFGIESWPDYEDIYKKTVEVGTFLDLPRFPDITEDCYLHPNILCMKYLMEVNLPDEMHSLTCHVVKMTGMGEVDFLTFDPIAKMAKTVKYDVQAVAIIVVVLKLLFLLDDSFEWSLSNLAEKHNEKNKKDKPWFDFRKWYQIMKKAFDEKKQKWEEARAKYLWKSEKPLYYSFVDKPVAYKKREMVVNLQKQFSTLVESTATAGKKSPSSFQFNWTEEDTDRTCFHGHSLQGVLKEKGQSLLTKNSLYWLSTQKFCRCYCTHVTTYEESNYSLSYQFILNLFSFLLRIKTSLLHEEVSLVEKKLFEKKYSVKRKKSRSKKVRRH
B8: FOXI1, Q12951 (protein)
chain: MSSFDLPAPSPPRCSPQFPSIGQEPPEMNLYYENFFHPQGVPSPQRPSFEGGGEYGATPNPYLWFNGPTMTPPPYLPGPNASPFLPQAYGVQRPLLPSVSGLGGSDLGWLPIPSQEELMKLVRPPYSYSALIAMAIHGAPDKRLTLSQIYQYVADNFPFYNKSKAGWQNSIRHNLSLNDCFKKVPRDEDDPGKGNYWTLDPNCEKMFDNGNFRRKRKRKSDVSSSTASLALEKTESSLPVDSPKTTEPQDILDGASPGGTTSSPEKRPSPPPSGAPCLNSFLSSMTAYVSGGSPTSHPLVTPGLSPEPSDKTGQNSLTFNSFSPLTNLSNHSGGGDWANPMPTNMLSYGGSVLSQFSPHFYNSVNTSGVLYPREGTEV
B9: PLAGL2, Q9UPG8 (protein)
chain: MTTFFTSVPPWIQDAKQEEEVGWKLVPRPRGREAESQVKCQCEISGTPFSNGEKLRPHSLPQPEQRPYSCPQLHCGKAFASKYKLYRHMATHSAQKPHQCMYCDKMFHRKDHLRNHLQTHDPNKEALHCSECGKNYNTKLGYRRHLAMHAASSGDLSCKVCLQTFESTQALLEHLKAHSRRVAGGAKEKKHPCDHCDRRFYTRKDVRRHLVVHTGRKDFLCQYCAQRFGRKDHLTRHVKKSHSQELLKIKTEPVDMLGLLSCSSTVSVKEELSPVLCMASRDVMGTKAFPGMLPMGMYGAHIPTMPSTGVPHSLVHNTLPMGMSYPLESSPISSPAQLPPKYQLGSTSYLPDKLPKVEVDSFLAELPGSLSLSSAEPQPASPQPAAAAALLDEALLAKSPANLSEALCAANVDFSHLLGFLPLNLPPCNPPGATGGLVMGYSQAEAQPLLTTLQAQPQDSPGAGGPLNFGPLHSLPPVFTSGLSSTTLPRFHQAFQ
B10: RORB, Q92753 (protein)
chain: MCENQLKTKADATAQIEVIPCKICGDKSSGIHYGVITCEGCKGFFRRSQQNNASYSCPRQRNCLIDRTNRNRCQHCRLQKCLALGMSRDAVKFGRMSKKQRDSLYAEVQKHQQRLQEQRQQQSGEAEALARVYSSSISNGLSNLNNETSGTYANGHVIDLPKSEGYYNVDSGQPSPDQSGLDMTGIKQIKQEPIYDLTSVPNLFTYSSFNNGQLAPGITMTEIDRIAQNIIKSHLETCQYTMEELHQLAWQTHTYEEIKAYQSKSREALWQQCAIQITHAIQYVVEFAKRITGFMELCQNDQILLLKSGCLEVVLVRMCRAFNPLNNTVLFEGKYGGMQMFKALGSDDLVNEAFDFAKNLCSLQLTEEEIALFSSAVLISPDRAWLIEPRKVQKLQEKIYFALQHVIQKNHLDDETLAKLIAKIPTITAVCNLHGEKLQVFKQSHPEIVNTLFPPLYKELFNPDCATGCK

Target: nucleoprotein N of Crimean-Congo hemorrhagic fever virus
Assay: AlphaScreen luminescence signal relative to Venus negative control (fold); higher = stronger binding to CCHFV N
Experimental: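 AlphaScreen binding of cell-free made, FLAG-GST-tagged human transcription factors and regulators (crude translation products) to biotinylated N protein; signal as fold of the FLAG-GST-Venus control. One pass.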

| Binder | AlphaScreen luminescence signal |
| --- | --- |
| B1 | 2.37 |
| B2 | 2.47 |
| B3 | 5.02 |
| B4 | 2 |
| B5 | 2.28 |
| B6 | 3.91 |
| B7 | 2.7 |
| B8 | 1.67 |
| B9 | 2.88 |
| B10 | 4.09 |
